These are yes or no findings as the source states them, for the method shown. Binding seen in cells or lysates may run through a third protein. Some results given as binding are weak or reduced against the parent protein; the word gives no strength. Each block holds one substance with its values, some of them ahead of it.
Key:
[1] = molecular target: FLAG-cIAP2 (UniProt Q13489); test: co-IP; FLAG-cIAP2 expressed in HEK293T cells (alone or with GFP-HAX1 deletion mutants), precipitated with anti-FLAG M2 agarose at 4°C; lysis buffer 20 mM Tris-HCl pH 7.5, 150 mM NaCl, 1% igepal, 10% glycerol; blots with anti-HAX1 or anti-GFP and anti-FLAG
[2] = molecular target: endogenous cIAP1 (proximity ligation assay) (UniProt Q13490); test: proximity ligation; endogenous proteins in cells (Supplementary Figure S2); cell line not stated
[3] = molecular target: endogenous cIAP2 (proximity ligation assay) (UniProt Q13489); test: as above
[4] = molecular target: HA-cIAP2 and Myc-cIAP2 (two differently tagged copies of cIAP2) (UniProt Q13489); test: co-IP; in vivo dimerization assay: HEK 293T cells co-transfected with HA-cIAP2, Myc-cIAP2 and FLAG-HAX1 (0, 0.8 and 2 μg), MG132 (10 μM) for 7 h; precipitated with anti-HA agarose, 4 h at 4°C; more dimer with HAX1
[5] = molecular target: CARD domain of cIAP2 (Supplementary Figure S1B) (UniProt Q13489); test: co-IP; co-immunoprecipitation in HEK293T cells with the CARD domain of cIAP2 (Supplementary Figure S1B); antibodies and tags not told
[6] = molecular target: HA-cIAP1 (UniProt Q13490); test: co-IP; HA-cIAP1 and exogenous HAX1 expressed in HEK293T cells; HA-cIAP1 immunoprecipitated, immunoblot (Supplementary Figure S1A)
[7] = molecular target: endogenous HAX1 (MDA-MB-231 cells) (human (endogenous in MDA-MB-231)) (UniProt O00165); test: co-IP; MDA-MB-231 lysates incubated with IgG or anti-HAX1 antibody; blots with anti-cIAP2 and anti-HAX1; endogenous proteins

By UniProt entry, the sequences of proteins in these tests, tags left out. Where a name states a change or a piece, a line headed by the entry shows the natural chain unless it says otherwise. Residues count along the entry.
UniProt Q13489: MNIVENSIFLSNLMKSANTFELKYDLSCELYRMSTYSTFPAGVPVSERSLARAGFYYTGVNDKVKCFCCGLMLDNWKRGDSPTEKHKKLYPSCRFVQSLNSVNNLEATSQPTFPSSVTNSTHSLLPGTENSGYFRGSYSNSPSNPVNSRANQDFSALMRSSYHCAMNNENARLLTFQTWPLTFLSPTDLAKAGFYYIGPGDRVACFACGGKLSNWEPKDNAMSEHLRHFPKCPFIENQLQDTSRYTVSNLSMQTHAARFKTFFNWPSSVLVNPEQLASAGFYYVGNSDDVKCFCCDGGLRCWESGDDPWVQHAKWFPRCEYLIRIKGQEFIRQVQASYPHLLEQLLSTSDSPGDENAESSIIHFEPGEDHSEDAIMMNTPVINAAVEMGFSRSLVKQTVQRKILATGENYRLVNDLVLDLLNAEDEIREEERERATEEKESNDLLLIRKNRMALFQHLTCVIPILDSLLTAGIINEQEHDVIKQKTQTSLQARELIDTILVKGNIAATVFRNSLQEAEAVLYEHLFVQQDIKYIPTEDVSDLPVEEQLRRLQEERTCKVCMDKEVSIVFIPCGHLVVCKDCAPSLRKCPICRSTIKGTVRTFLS
CARD domain of cIAP2 (Supplementary Figure S1B): residues 439-529 of Q13489
UniProt Q13490: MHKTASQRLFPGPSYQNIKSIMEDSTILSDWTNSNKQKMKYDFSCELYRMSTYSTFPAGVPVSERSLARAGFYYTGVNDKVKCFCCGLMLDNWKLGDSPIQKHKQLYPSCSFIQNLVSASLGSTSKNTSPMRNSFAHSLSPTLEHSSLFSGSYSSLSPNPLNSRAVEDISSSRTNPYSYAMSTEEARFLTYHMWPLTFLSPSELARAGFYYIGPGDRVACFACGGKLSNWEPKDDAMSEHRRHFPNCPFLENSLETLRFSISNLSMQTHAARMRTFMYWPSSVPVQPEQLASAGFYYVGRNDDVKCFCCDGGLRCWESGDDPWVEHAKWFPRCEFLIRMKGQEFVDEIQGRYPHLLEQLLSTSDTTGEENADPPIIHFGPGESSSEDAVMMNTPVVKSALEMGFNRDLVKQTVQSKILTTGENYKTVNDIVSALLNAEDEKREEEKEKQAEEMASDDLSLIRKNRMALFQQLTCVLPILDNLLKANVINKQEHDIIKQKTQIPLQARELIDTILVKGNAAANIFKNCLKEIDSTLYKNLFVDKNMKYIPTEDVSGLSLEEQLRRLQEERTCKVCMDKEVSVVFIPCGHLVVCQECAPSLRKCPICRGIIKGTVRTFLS
UniProt O00165: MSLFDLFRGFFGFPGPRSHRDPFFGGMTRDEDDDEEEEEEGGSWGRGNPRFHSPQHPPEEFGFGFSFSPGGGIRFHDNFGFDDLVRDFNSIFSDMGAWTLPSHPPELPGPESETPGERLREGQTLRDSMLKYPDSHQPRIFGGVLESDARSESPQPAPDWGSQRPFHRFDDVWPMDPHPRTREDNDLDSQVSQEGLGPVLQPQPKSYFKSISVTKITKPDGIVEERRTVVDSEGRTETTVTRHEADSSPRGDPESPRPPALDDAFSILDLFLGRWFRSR

Substance: GFP-HAX1N, N-terminal domain (a.a 1–127) (from UniProt O00165 1-127) (domain or fragment)
binding [1]: no binding

Substance: endogenous HAX1 (HEK293T cells) (from UniProt O00165 1-279)
binding [1]: binds

Substance: endogenous HAX1 (proximity ligation assay) (from UniProt O00165 1-279)
binding [2]: binds | binding [3]: binds

Substance: exogenous HAX1 (co-expressed with HA-cIAP1) (from UniProt O00165 1-279)
binding [6]: binds

Substance: endogenous cIAP2 (MDA-MB-231 cells) (from UniProt Q13489 1-604)
binding [7]: binds

Other lines, results leading:

binding [1]: binds
Substance: GFP-HAX1 C-terminal domain (a.a 128–279) (from UniProt O00165 128-279) (domain or fragment)

binding [4]: binds
Substance: HA-cIAP2 and Myc-cIAP2 (two differently tagged copies of cIAP2) (from UniProt Q13489 1-604)

binding [5]: binds
Substance: HAX1 (co-immunoprecipitation of Supplementary Figure S1B) (from UniProt O00165 1-279)

From article PMC4259407, “HAX1 regulates E3 ubiquitin ligase activity of cIAPs by promoting their dimerization” (Oncotarget, 2014)
